Measurements taken from the supplement of paper PMC3334620.
Over roughly 33,000 sequences, “E-score (-0.5 to 0.5)” has its median near -0.035; the highest 2% begin near 0.35. The list shows a part of the results.

target: T1, Pdr3 (UniProt P33200); assay: PBM E-score (8-mer binding enrichment) (E-score (-0.5 to 0.5)); higher = stronger / more preferred TF binding; most listed sequences are background and not binding sites; settings: protein concentration: 200 nM; construct: GST-full length
T1 sequence: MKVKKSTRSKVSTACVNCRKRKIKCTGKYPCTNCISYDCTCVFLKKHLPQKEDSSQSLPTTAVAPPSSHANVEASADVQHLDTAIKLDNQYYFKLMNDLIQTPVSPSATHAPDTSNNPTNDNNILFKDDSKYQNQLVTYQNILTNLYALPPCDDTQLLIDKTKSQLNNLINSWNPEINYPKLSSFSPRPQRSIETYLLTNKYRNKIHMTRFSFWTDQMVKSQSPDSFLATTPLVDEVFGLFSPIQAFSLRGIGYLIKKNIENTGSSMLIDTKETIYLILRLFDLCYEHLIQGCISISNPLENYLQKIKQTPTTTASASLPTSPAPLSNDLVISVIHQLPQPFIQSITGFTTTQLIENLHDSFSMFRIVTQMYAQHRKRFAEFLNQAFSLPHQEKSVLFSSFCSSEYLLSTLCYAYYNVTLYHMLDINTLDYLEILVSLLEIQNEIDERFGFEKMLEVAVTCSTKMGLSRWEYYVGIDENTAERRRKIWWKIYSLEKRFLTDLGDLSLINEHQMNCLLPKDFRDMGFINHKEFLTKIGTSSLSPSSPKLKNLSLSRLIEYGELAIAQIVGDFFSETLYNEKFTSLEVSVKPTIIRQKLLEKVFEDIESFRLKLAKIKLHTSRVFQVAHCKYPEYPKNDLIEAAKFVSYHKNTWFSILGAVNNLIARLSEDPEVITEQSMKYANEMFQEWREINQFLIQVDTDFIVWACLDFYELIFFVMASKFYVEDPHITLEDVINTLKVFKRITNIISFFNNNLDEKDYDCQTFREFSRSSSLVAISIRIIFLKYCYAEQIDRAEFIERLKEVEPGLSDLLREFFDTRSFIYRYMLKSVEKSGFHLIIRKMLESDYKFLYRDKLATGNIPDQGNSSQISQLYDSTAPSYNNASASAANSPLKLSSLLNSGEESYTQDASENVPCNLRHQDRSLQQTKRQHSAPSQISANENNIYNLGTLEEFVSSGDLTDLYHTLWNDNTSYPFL
Summary of the method: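 Full-length yeast transcription factors or their DNA-binding domains, GST-tagged and expressed with PURExpress, were applied at about 100-200 nM to universal all-10-mer Agilent arrays. These arrays had been made double-stranded by primer extension on fresh or once-stripped slides. Detection used fluorescent anti-GST, normalisation used masliner, and E-scores for ungapped eight-base words pooled with reverse complements came from the Universal PBM Analysis Suite.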

Sequence	PBM E-score
CCGTCCCA	0.1
ATGATAAT	0.0172
ATGCTCGA	-0.09
GATGGGTA	-0.132
AAAGTGGC	-0.0322
GCTCATAA	-0.0545
ATCAGGTC	-0.0659
AATAATCG	0.0741
AGTGTCCC	0.132
ACGGATAC	0.368
CTTTGACA	-0.154
CACCAGCC	0.0355
CTTCGCAA	-0.106
GGGCCATA	0.169
TATAGCGA	-0.226
AAACATGA	-0.153
TCTCTTAA	-0.0927
ACCGGTAG	0.0205
CCTTCGCG	0.156
CGCATGGA	0.0271
CATTATGG	-0.0619
ATCTTGTC	0.0953
CTCTCTGA	-0.144
CTAACCGA	0.0718
CATTGTTA	-0.179

Sequence	PBM E-score
AGTGTGGC	0.00366
ATGTGGCC	0.034
CATTCCAG	-0.131
GGAACCCA	0.18
GAGTGATA	-0.0471
AACGCCAA	0.0256
ATGGCCGG	0.239
CCCGCTCA	0.143
AGAAGGAG	-0.245
AGGATTGA	-0.119
CTGGGCGC	-0.0849
ACCCAATC	0.0522
AGAACCAA	-0.0407
GACTGGCA	-0.0551
AGCAATCG	-0.0482
CAATTGGG	-0.0532
GACCGCTA	0.00691
TAACATAA	0.0329
CCTTCATC	-0.0906
GGTATAAA	0.0349
GAATGCTA	-0.0399
GGCTTCTA	-0.212
ACACCACC	-0.141
GCCATTCC	0.255
ATTCTGTG	0.0657

Sequence	PBM E-score
GATATATA	0.175
CGCTATGC	-0.0904
TGCTCTAA	-0.268
AGGCGCAG	-0.216
CGGCAACC	0.286
AGGGAAAT	-0.115
ACTACTTC	0.0951
CAGTCTAC	-0.247
AGACAGAG	-0.182
ATGCAGCC	-0.0607
CGGAATGA	0.435
AAGCGAGG	0.0113
CGACACAC	0.0172
CAAAACCG	0.00937
GATCGAGA	-0.0119
GGACTCGA	0.133
TACCACGA	-0.113
CGAAGCTC	-0.0418
ATACGGTC	-0.0362
ATTGCGCA	0.159
ATTGGTTC	0.088
CTTGGAGC	-0.207
GCACCTCC	0.0713
CATGGAGC	-0.00894
GCCGTATA	0.0353

Sequence	PBM E-score
CATCCGAA	0.282
CGGCCGTC	0.274
CACTGCCC	0.102
AGGCGGCG	0.0493
AAAGCGGA	0.239
ACCCCCGG	0.17
GGAACACA	0.24
AAGAGCGC	-0.0783
CGTTAAAA	-0.201
ACTATCCC	0.165
CGGGTAAG	-0.0318
GGGACGAC	0.0046
AGCGACGA	-0.238
TACCATAA	-0.0916
TACAATAA	-0.135
GTGCCACA	-0.126
ATGTTGCA	-0.27
AAAGGTCA	-0.0357
GGGTAGCA	0.122
TCACCAGA	-0.255
CCCCGCTA	0.212
GGTCGTTA	-0.0495
AGAGACCG	0.00353
GCCCAATA	0.0382
ATTGTCAC	-0.0348

Sequence	PBM E-score
CCTAACCA	-0.111
AGGACACT	-0.201
ACCGAGCC	0.102
TACTAGGA	-0.00487
CCAATCGG	0.0905
CTCATCCA	-0.146
TTGGGAAA	0.0633
ATCTTACA	-0.0932
CCCGGTAG	0.187
AGAAAAGC	0.0469
GACGAGAA	-0.0493
GGCGCACA	0.207
CGTAAAGC	-0.301
TAATATCA	-0.167
GCCGACGA	0.101
ACGTAGAC	-0.225
CGATTCGC	0.13
ACAGTAGC	-0.138
GATTGCAA	0.0405
AGATGCGC	0.0125
CGAACTAC	0.109
ACTATAAC	-0.144
CTGAGAGC	-0.0543
AGAGGTCC	0.152
AAATCTTA	-0.171

Sequence	PBM E-score
CTTTCGTC	0.0215
CTGACATA	-0.251
ACTATTCG	-0.0887
CGGCACTA	0.244
CCGCATAA	0.336
CCAAGAAG	-0.141
CTGCGCGA	-0.0594
ATATGTGG	-0.0565
AGACAACT	-0.0312
GCTTCGAA	-0.0532
CGTCATAC	0.0601
GAGAGAGA	0.0254
GCCTTTAA	-0.0677
AATTCGGC	0.173
TAAGGTAA	-0.00576
GCTGCAGC	0.171
GCGGATTA	0.204
CGGGTTAC	0.192
ACTTTGCT	-0.206
CTTCAGGC	-0.224
GAGGTGTA	-0.13
CAAGGGTG	-0.18
GGAACGAA	0.294
ACCCCTTA	-0.0682
GTGTAAGA	-0.166

Sequence	PBM E-score
CTACCGTC	0.00154
CTAGAGAG	-0.354
AACGGATC	0.367
CGATTAGC	-0.127
ATCATTCA	0.056
CGCTAGAG	-0.215
GCGACACA	-0.0561
CACCAGTC	-0.265
ATCGTAGG	-0.17
ATATAATG	-0.205
ACTGTGGG	-0.18
AGATTGCA	-0.0569
CGTAGATA	-0.0634
CCGGGCAA	0.283
CCCGCGTC	0.236
GAGTAGCC	-0.153
TCCTTTAA	-0.0542
CGAGTGAC	-0.0966
GGGAGACA	0.122
AATGTGCC	-0.00603
GCGTTACC	-0.0363
CCGCGAGC	0.206
